This is one part of the list.
Key:
[1] = system: HSkMC (human skeletal muscle cells); assay: cytotoxicity call (relative viability < 0.9); settings: 10 µM
[2] = system: HepG2; assay: cytotoxicity call (relative viability < 0.9); settings: 10 µM
[3] = system: S. aureus RN4220; assay: growth inhibition call (relative growth <= 0.2); settings: 50 µM

CCOCc1c[nH]c(=O)[nH]c1=O
cytotoxicity call [1]: inactive | cytotoxicity call [2]: inactive | growth inhibition call [3]: inactive

CC1(C)SCN(S(=O)(=O)c2ccccc2)[C@@H]1C(=O)N[C@@H](CNC(=O)NCc1ccccc1)C(=O)O
cytotoxicity call [1]: inactive | cytotoxicity call [2]: inactive | growth inhibition call [3]: inactive

C[C@H]1CN([C@@H](C)CO)S(=O)(=O)c2ccc(C#CC3CC3)cc2O[C@H]1CN(C)Cc1ccccc1F
cytotoxicity call [1]: inactive | cytotoxicity call [2]: inactive | growth inhibition call [3]: inactive

C[C@@H]1CN([C@H](C)CO)C(=O)c2cc(NC(=O)Nc3ccc(C(F)(F)F)cc3)ccc2O[C@H]1CN(C)Cc1ccc(C(=O)Nc2ccccc2N)cc1
cytotoxicity call [1]: inactive | cytotoxicity call [2]: inactive | growth inhibition call [3]: inactive

O=C(C[C@H]1C[C@H]2c3cc(NC(=O)Cc4ccncc4)ccc3O[C@H]2[C@H](CO)O1)NCCc1ccccc1
cytotoxicity call [1]: inactive | cytotoxicity call [2]: inactive | growth inhibition call [3]: inactive

CN1C(=S)N[C@@H]2CS(=O)(=O)C[C@@H]21
cytotoxicity call [1]: inactive | cytotoxicity call [2]: inactive | growth inhibition call [3]: inactive

C[C@@H]1CN([C@@H](C)CO)S(=O)(=O)c2ccc(C#CC3CC3)cc2O[C@@H]1CN(C)C(=O)C1CCCCC1
cytotoxicity call [1]: inactive | cytotoxicity call [2]: inactive | growth inhibition call [3]: inactive

C[C@H](CO)N1C[C@H](C)[C@@H](CN(C)C(=O)NC2CCCCC2)OCCCC[C@H](C)Oc2ccc(NC(=O)c3ccncc3)cc2C1=O
cytotoxicity call [1]: inactive | cytotoxicity call [2]: inactive | growth inhibition call [3]: inactive

Cc1noc(C)c1S(=O)(=O)Nc1ccc2c(c1)CC(=O)N([C@@H](C)CO)C[C@@H](C)[C@@H](CN(C)Cc1ccncc1)O2
cytotoxicity call [1]: inactive | cytotoxicity call [2]: inactive | growth inhibition call [3]: inactive

CSc1n[nH]c2nc(=O)cc(N)n12
cytotoxicity call [1]: inactive | cytotoxicity call [2]: inactive | growth inhibition call [3]: inactive

Cc1noc(C)c1NC(=O)N(C)C[C@@H]1Oc2ccc(NC(=O)Nc3cccc4ccccc34)cc2C(=O)N([C@@H](C)CO)C[C@@H]1C
cytotoxicity call [1]: inactive | cytotoxicity call [2]: inactive | growth inhibition call [3]: inactive

NCC[C@@H]1CC[C@@H](NC(=O)Nc2ccc(F)cc2)[C@H](CO)O1
cytotoxicity call [1]: inactive | cytotoxicity call [2]: inactive | growth inhibition call [3]: inactive

CO[C@H]1CN(C)C(=O)c2ccc(NC(=O)C3CCOCC3)cc2OC[C@@H](C)N(Cc2cccnc2)C[C@@H]1C
cytotoxicity call [1]: inactive | cytotoxicity call [2]: inactive | growth inhibition call [3]: inactive

CC(C)N1CC=C[C@@]23O[C@@H]4C=CCCOC(=O)[C@@H]4[C@H]2C(=O)N(CCO)[C@@H]3C1=O
cytotoxicity call [1]: inactive | cytotoxicity call [2]: inactive | growth inhibition call [3]: inactive

C[C@H]1CC/C=C\[C@H]2O[C@@]34C=CCN(c5ccc6ccccc6c5)C(=O)[C@H]3N(CCCO)C(=O)[C@@H]4[C@@H]2C(=O)O1
cytotoxicity call [1]: inactive | cytotoxicity call [2]: inactive | growth inhibition call [3]: inactive

CCCC#Cc1cnc2c(c1)C(=O)N([C@H](C)CO)C[C@@H](C)[C@H](CN(C)S(=O)(=O)c1cccc(OC)c1)O2
cytotoxicity call [1]: inactive | cytotoxicity call [2]: inactive | growth inhibition call [3]: inactive

COc1ccc(CN(C)C[C@@H]2OCCCC[C@H](C)Oc3ccc(NC(=O)Nc4ccc(C(F)(F)F)cc4)cc3C(=O)N([C@@H](C)CO)C[C@H]2C)cc1
cytotoxicity call [1]: active | cytotoxicity call [2]: active | growth inhibition call [3]: inactive

CCN1C(=O)CN(CC(=O)O)C1=O
cytotoxicity call [1]: inactive | cytotoxicity call [2]: inactive | growth inhibition call [3]: inactive

Cc1noc(C)c1NC(=O)N(C)C[C@H]1Oc2ccc(NC(=O)CCCN(C)C)cc2CC(=O)N([C@@H](C)CO)C[C@@H]1C
cytotoxicity call [1]: inactive | cytotoxicity call [2]: inactive | growth inhibition call [3]: inactive

NC[C@H](c1ccco1)N1CCCCCC1
cytotoxicity call [1]: inactive | cytotoxicity call [2]: inactive | growth inhibition call [3]: inactive

Cc1ccccc1NC(=N)N=C(N)N
cytotoxicity call [1]: inactive | cytotoxicity call [2]: active | growth inhibition call [3]: inactive

COc1ccc([C@@H]([C@H](Cc2ccccc2)OC(C)=O)N2C[C@@H](CC(=O)N(C)C)[C@@H]3[C@H]([C@@H]2Cc2ccccc2)N(C)O[C@H]3c2ccccc2)cc1
cytotoxicity call [1]: inactive | cytotoxicity call [2]: inactive | growth inhibition call [3]: inactive

C[C@@H]1CCCCO[C@H](CN(C)C(=O)CCCN(C)C)[C@@H](C)CN([C@H](C)CO)C(=O)c2cc(NC(=O)Nc3ccc(F)cc3)ccc2O1
cytotoxicity call [1]: inactive | cytotoxicity call [2]: inactive | growth inhibition call [3]: inactive

C[C@H](O)C#Cc1ccc2c(c1)O[C@H](CN(C)C(=O)c1ccccc1)[C@@H](C)CN([C@H](C)CO)S2(=O)=O
cytotoxicity call [1]: inactive | cytotoxicity call [2]: inactive | growth inhibition call [3]: inactive

CO[C@H]1CN(C)C(=O)c2ccc(NS(=O)(=O)CC(F)(F)F)cc2OC[C@@H](C)N(C(=O)c2ccc3c(c2)OCO3)C[C@@H]1C
cytotoxicity call [1]: inactive | cytotoxicity call [2]: inactive | growth inhibition call [3]: inactive

CC(CO)(CO)NS(=O)(=O)c1ccccc1
cytotoxicity call [1]: inactive | cytotoxicity call [2]: inactive | growth inhibition call [3]: inactive

C[C@H](CO)N1C[C@H](C)[C@H](CN(C)Cc2ccc(C(=O)Nc3ccccc3N)cc2)Oc2c(NC(=O)NC3CCCCC3)cccc2C1=O
cytotoxicity call [1]: inactive | cytotoxicity call [2]: active | growth inhibition call [3]: inactive

C[C@H](CO)N1C[C@H](C)[C@@H](CN(C)C(=O)C2CCC2)Oc2cc(C#Cc3ccncc3)ccc2S1(=O)=O
cytotoxicity call [1]: inactive | cytotoxicity call [2]: active | growth inhibition call [3]: inactive

COc1ccc([Si](C)(C)[C@@H]2[C@@H](CC(=O)N3Cc4ccccc4C[C@H]3CO)O[C@]3(C(=O)N(C)c4c(Br)cc(C)cc43)[C@H]2C)cc1
cytotoxicity call [1]: active | cytotoxicity call [2]: inactive | growth inhibition call [3]: inactive

— the antibiotic and cytotoxicity screens of Wong et al. (2023)
